In all, about 110,000 compounds were measured (“z-score”: median about -0.1, highest 2% from about 2 on). This is one part of the list. Calls of active or inactive are those of the source.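 The calls were made as follows: active = z-score in the third read window above 3 or below -3; inactive = the rest.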
target: Metabotropic glutamate receptor 8 (Rattus norvegicus) (UniProt P70579); test: mGluR8 Gi/Go-coupled signaling modulation – cell-based, rat, thallium flux, HTS, primary screen (AID 488969); conditions: HEK293 rat mGluR8, GIRK (G protein-gated inwardly rectifying potassium channel) thallium flux, FluoZin2; at 10 µM; stronger effect = higher value; submaximal glutamate (EC20) added with thallium
UniProt P70579, sequence (P70579 whole entry, looked up): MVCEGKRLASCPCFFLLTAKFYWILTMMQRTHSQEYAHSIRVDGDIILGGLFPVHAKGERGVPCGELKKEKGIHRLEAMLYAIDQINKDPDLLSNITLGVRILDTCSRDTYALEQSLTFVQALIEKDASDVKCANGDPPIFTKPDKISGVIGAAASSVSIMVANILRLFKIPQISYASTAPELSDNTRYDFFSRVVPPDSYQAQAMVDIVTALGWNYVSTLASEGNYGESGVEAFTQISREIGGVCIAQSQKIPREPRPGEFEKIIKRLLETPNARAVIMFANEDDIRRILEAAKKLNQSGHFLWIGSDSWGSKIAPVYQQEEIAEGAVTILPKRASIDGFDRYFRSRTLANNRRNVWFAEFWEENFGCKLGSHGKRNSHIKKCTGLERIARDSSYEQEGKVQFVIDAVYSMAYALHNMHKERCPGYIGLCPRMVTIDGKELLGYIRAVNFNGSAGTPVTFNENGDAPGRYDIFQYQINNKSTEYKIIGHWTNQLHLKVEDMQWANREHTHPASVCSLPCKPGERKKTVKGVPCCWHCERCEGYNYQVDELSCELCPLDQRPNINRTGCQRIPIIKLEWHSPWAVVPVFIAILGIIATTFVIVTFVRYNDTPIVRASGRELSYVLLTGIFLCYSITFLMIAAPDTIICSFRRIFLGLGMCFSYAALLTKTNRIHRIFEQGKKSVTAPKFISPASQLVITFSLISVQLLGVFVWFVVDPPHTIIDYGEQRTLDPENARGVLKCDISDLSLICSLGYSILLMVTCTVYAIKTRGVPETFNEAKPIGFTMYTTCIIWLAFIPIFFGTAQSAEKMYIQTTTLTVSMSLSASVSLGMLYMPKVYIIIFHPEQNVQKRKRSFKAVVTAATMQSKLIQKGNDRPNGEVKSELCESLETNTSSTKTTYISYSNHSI

SMILES	z-score
CN(c1ccccc1C(=O)NC1CC2CCC1C2)S(=O)(=O)c1ccccc1 (stereo not given)	-0.356
COc1nc(C)nc2c1sc(=S)n2C	-1.07
COc1cc(C(=O)Nc2nc3ccc(S(=O)(=O)N4CCOCC4)cc3s2)cc(OC)c1OC	-0.147
CC1(C)Cc2c(sc3nc(-c4ccccc4)oc(=O)c23)CO1	-0.0277
CCC(=O)c1ccc(OCC(O)CN(CCc2ccccc2)Cc2ccccc2)cc1 (stereo not given)	-0.279
CC(C)C(=O)N/N=C/c1ccc(OCc2ccccc2)cc1	-0.402
Cc1ccc(N/N=C/c2cccnc2)cc1	-0.225
CC(Oc1cccc(Cl)c1)C(=O)Nc1ccc([N+](=O)[O-])cn1 (stereo not given)	-0.576
Cc1ccc(Oc2cc(-n3nc(C)cc3C)ncn2)cc1	-0.129
Clc1ccc(CSc2nnc(Cn3cnc4ccccc43)o2)cc1	-0.164
CCNC(=O)CC1C(=O)N(c2cccc(OC)c2)C(=O)N1CCOC (stereo not given)	-0.0255
Cc1nnc(SCC(=O)NNC(=O)c2ccccc2)n1-c1ccccc1	0.58
O=C1NCCCC2c3cc(O)c4ccccc4c3OC12N1CCCCC1 (stereo not given)	0.88
Cc1nc2c3cc(Cl)ccc3n(CCN3CCCCC3)c2s1	-0.2
COc1ccc(Nc2oc(COc3cccc(C)c3)nc2C#N)cc1	-0.231
Nc1nc(-c2ccco2)nn1C(=O)c1ccc(Cl)cc1	0.891
Cc1ccc(NC(=O)CN2CCC(C(=O)c3ccc(F)cc3)CC2)cc1	-0.231
CC(=O)Nc1cccc(C(=O)/C=C/c2ccc(Br)cc2)c1	-0.447
O=[N+]([O-])c1ccc(Cl)c(/C=N/NC(=S)Nc2ccccc2)c1	1.33
CC1CCc2c(sc3ncnc(SCC(=O)c4ccccc4)c23)C1 (stereo not given)	0.381
NC(=O)c1ccc(Cc2ncc(C(F)(F)F)cc2Cl)s1	active: 4.24
COc1ccc(N(C(=O)c2ccccc2OC)C2C=CS(=O)(=O)C2)c(OC)c1 (stereo not given)	-0.153

SMILES	z-score
CC(C)n1c(NCc2ccc(N(C)C)cc2)nc2ccccc21	-0.853
O=C(CSc1ncccn1)NC(=O)NCc1ccccc1	0.0641
Cc1cc(C)n(S(=O)(=O)c2cccc(Cl)c2Cl)n1	0.0791
CC1(N2CCCCC2)C(=O)c2ccccc2C1=O	0.0349
COc1cc(C(=O)N2CCC(n3c(C)nc4cc(F)ccc43)CC2)cc(OC)c1OC	0.139
CC1=C(c2ccccc2)[N+](=O)C2(CCCC2)N1[O-]	0.067
CCOC(=O)c1ccc(NS(=O)(=O)c2cc(-c3nnnn3CC)ccc2OC)cc1	0.274
O=C(CCN1C(=O)c2ccccc2C1=O)C1=NN[C@@H]2C(=O)N(c3cccc(Cl)c3)C(=O)[C@H]12	-0.513
CCOc1cc(/C=N/NC(=O)C(C)Sc2ccccn2)ccc1O (stereo not given)	-0.298
CCN(CC)c1nc(-c2ccc(Cl)cc2)cc(C(F)(F)F)c1C#N	-0.142
CN1CCN(Cc2c(O)ccc3occ(C(=O)c4ccccc4)c23)CC1	-0.931
COC(=O)c1ccc(N2C(=O)CC(N(C)CCc3ccc(OC)c(OC)c3)C2=O)cc1 (stereo not given)	0.475
COc1ccccc1Nc1nc(N)nc(CSc2ncccn2)n1	-0.305
CCc1ccc(CNC(=O)c2cc3c(C)nc4ccccc4c3o2)cc1	-0.656
O=C1NCN(c2ccccc2)C12CCN(c1nnnn1-c1ccccc1)CC2	-0.747
CCn1c(SCc2ccc(OC)cc2)nnc1-c1ccncc1	0.857
CNc1ccccc1-n1ccc(-c2ccccc2)n1	1.11
COc1ccccc1NC(=O)C(=N\O)/C(C)=N/O	-0.28
Cc1ccc(S(=O)(=O)NC(=O)Nc2ccc(F)cc2)cc1	0.0553
COC(=O)NNC(=O)c1cccc(C)c1	-0.067
CSc1nc(-c2ccco2)nn1C(=O)c1ccc(Cl)cc1	-0.367
COCc1c(C#N)c(NCCc2ccc(F)cc2)nc(C)c1[N+](=O)[O-]	-0.47

SMILES	z-score
OC1CCCCC1Sc1nc2ccccc2s1 (stereo not given)	-0.475
COc1ccc(C2Nc3ccccc3C(=O)N2c2ccc(C)cc2)cc1Cn1nc(C)c([N+](=O)[O-])c1C (stereo not given)	-0.318
CCc1cc(=O)oc2c(C)c(OS(C)(=O)=O)ccc12	0.233
COc1cc(C(=O)OC(C)C(=O)Nc2ccc3c(c2)OCO3)ccc1OCc1c(C)noc1C (stereo not given)	0.154
COc1ccc(/C=N/n2cnnc2SCc2ccccc2)cc1	-0.759
Cn1c(=O)c2c(nc(OCc3cccnc3)n2Cc2ccccc2)n(C)c1=O	-0.843
COc1ccccc1CNC(=O)c1ccc(CS(=O)(=O)c2ccccc2OC)o1	-0.585
O=C(c1ccccc1Br)N1CCN(c2ccccc2)CC1	-1.28
O=C(O)C1C2C=CC(C2)C1C(=O)OCc1ccccc1 (stereo not given)	-0.273
COc1ccc(/C=C2/SC(=O)N(CCC(=O)Nc3ccccc3)C2=O)cc1OC	0.629
Cc1ccc(-n2nnnc2-c2cnc3cc4c(cc3c2C)OCO4)cc1	-0.169
Cc1ccc(C)c(S(=O)(=O)Nc2nc(C)c(C(=O)Nc3ccccc3)s2)c1	-0.565
CC(C(=O)Nc1ccccc1-c1ccccc1)N1CCN(S(=O)(=O)c2ccccc2)CC1 (stereo not given)	-0.2
COc1ccccc1NC(=O)c1ccc(NC(=O)COC(=O)CCC2CCCC2)cc1	-0.644
COc1cc(C(c2c(C)[nH][nH]c2=O)c2c(C)[nH][nH]c2=O)ccc1OS(=O)(=O)c1ccc(C)cc1	0.123
CCOC(=O)C1=C(Nc2ccc(Br)cc2)CC(C)(O)C(C(=O)OCC)C1c1ccccc1 (stereo not given)	-0.148
Cc1occc1C(=O)Nc1cc(C(C)(C)C)on1	0.17
COC(=O)c1cc(C#N)c(Oc2ccccc2OC)nc1C	-0.0789
NC(=O)C1CCN(C2CC(=O)N(Cc3cccs3)C2=O)CC1 (stereo not given)	-0.0147
COc1cc(/C=C/C(=O)NC(C)C)ccc1OCc1ccccc1	-0.409
COc1ccc(NC(=S)NC(NC(C)=O)C(Cl)(Cl)Cl)c([N+](=O)[O-])c1 (stereo not given)	-0.504
CSC(=NNC(=O)c1ccc(O)cc1)SC	-0.329

SMILES	z-score
COc1ccc(NC(=O)CCNC(C)=O)cc1NS(=O)(=O)c1ccc(F)cc1	-0.467
O=C(Nc1ccccc1)N(Cc1ccc2c(c1)OCO2)Cc1nc2ccccc2c(=O)[nH]1	-0.179
COc1ccc(OC)c(S(=O)(=O)N2Cc3ccccc3CC2C(=O)Nc2nccs2)c1 (stereo not given)	0.00786
Cc1ccc(CN/C=C/C(=O)c2ccc(Br)cc2)cc1	-0.291
CCN(CC)S(=O)(=O)c1cc(NC(=O)COc2ccc(C#N)cc2OC)ccc1C	-0.129
O=C(NC1CCCCC1)N1CCSC1=Nc1ccccc1	-0.214
COCCOC(=O)C1=C(C)NC2=C(C(=O)CCC2)C1c1ccc(N(C)C)cc1 (stereo not given)	0.0399
O=S(=O)(NCc1ccccc1)c1ccc(S(=O)(=O)N(Cc2cccs2)CC2CCCO2)cc1 (stereo not given)	0.312
NC(=O)C1CCN(C(=O)c2cc(S(=O)(=O)N3CCOCC3)c(Cl)cc2Cl)CC1	-0.0618
O=C(NC1CCSC1=O)c1ccc(Cl)cc1 (stereo not given)	0.142
Cc1cc(C(=O)CN2C(=O)NC3(CCCC3)C2=O)c(C)n1-c1ccc2c(c1)OCO2	-0.531
CCN(CCNC(=O)c1ccc2nc(-c3ccccc3NC(C)=O)c(=O)[nH]c2c1)c1ccccc1	-0.113
Cc1cc(C)nc(N(C#N)S(=O)(=O)c2ccccc2Cl)n1	-0.133
CCN(CCNC(=O)CS(=O)(=O)Cc1nc(-c2cccc(OC)c2)oc1C)c1ccccc1	0.638
COc1ccccc1-c1nc(C#N)c(N2CCC(Cc3ccccc3)CC2)o1	-1.19
O=c1[nH]c2ccccc2nc1/C=C(\O)C1CC1	-0.262
S=C(Nc1ccc(Cl)cc1Cl)N1CCCCC1	0.13
C/[N+]([O-])=C\c1coc2ccccc2c1=O	-0.173
CCCCNc1c([N+](=O)[O-])cc(C)cc1[N+](=O)[O-]	0.0329
Cc1ccc(C)c2[nH]c(=O)c(CCNC(=O)CC(C)(C)C)cc12	-0.129
O=[N+]([O-])c1cccc(N=NN(CCO)c2cccc([N+](=O)[O-])c2)c1	0.184
CCC(=O)c1ccc(OCC(O)Cn2c(C)nc3ccccc32)cc1 (stereo not given)	-0.247

SMILES	z-score
CCNS(=O)(=O)c1ccc(NC(=O)Nc2cccc(OC)c2)cc1	0.0126
COc1ccc(/C=N/NC(=O)CCn2cnc(-c3ccccc3)c2-c2ccccc2)cc1OC	-0.718
Cc1ccc(NC(=O)CSc2nnc(-c3cnccn3)n2-c2ccccc2)cc1	-0.0515
Brc1ccc(OCc2ccccc2)c(CNCc2ccncc2)c1	-0.155
CCOC(=O)c1c(OCC)[nH]c2ccc(O)cc12	0.44
CC(=O)Oc1cc(OC(C)=O)c2c(C)cc(=O)oc2c1	1.2
COc1nc2ccc(C)cc2cc1-c1noc(-c2cccnc2)n1	-0.35
COc1ccc(-n2c(Cn3c(=O)sc4ccccc43)nnc2SCC(=O)N2CCCC2)cc1	0.171
CCN(CC)S(=O)(=O)c1ccc(N(C)Cc2ccc(C(F)(F)F)cc2)nc1	0.0648
ON1C2CCCCC2N(O)C1c1c(F)c(F)c(F)c(F)c1F (stereo not given)	0.131
COc1ccc(NC(=O)N(CCC(C)C)C(C)c2ccccn2)c(OC)c1 (stereo not given)	-0.384
O=C(NNC(=O)c1sc2ccccc2c1Cl)Nc1ccc(Cl)cc1	-0.0174
Cc1cc(C)nc(-n2nc(C)cc2NC(=O)c2cccc(S(=O)(=O)N3CCCCC3)c2)n1	-0.447
Cc1ccc(C(=O)CC(C(=O)O)c2cn(CCC#N)c3ccccc23)cc1 (stereo not given)	-0.137
Cc1csc(NC(=O)c2ccco2)n1	-0.675
O=C(Nc1cccc(Br)c1)c1ccccc1-c1ccccc1	-0.229
Cc1ccc(C)c(Nc2nc3c(S(=O)(=O)c4ccccc4)nnn3c3ccccc23)c1	-0.308
Cc1nn(Cc2ccccc2)c(C)c1NC(=O)CSc1nc2c(c(C(F)(F)F)n1)CCc1ccccc1-2	-0.213
O=C(NC(=O)N1CCN(c2cccc(Cl)c2)CC1)c1ccccc1	0.282
Oc1ccc(C=Nc2cccc3ncccc23)c(O)c1	0.192
COc1ccccc1C/C(N)=N/O	-0.139
COc1ccc(CCNC(=O)CN(c2ccccc2)S(C)(=O)=O)cc1OC	0.0553
